{"source": "PubChem BioAssay AID686979", "about": "(National Center for Advancing Translational Sciences (NCATS), 2013)", "note": "“And” between values parts separate entries of the source, which are not always exact repeats. Equal entries are not always repeated. Hit rate of the full screen: of about 420,000 compounds, about 50,000 (12%) were called active. Inconclusive means that the source gave no clear call. Such entries were picked first, then a sample of the others. The call rests on the fitted dose curve; in most records, active means well fitted inhibition curve with a large enough effect; inconclusive means small, poorly fitted or top-dose-only effect; inactive means flat fitted curve, though single readings scatter. Where the call is inconclusive, the potency comes from a doubtful curve fit. On the % scale 0 is the no-effect control and ±100 the full control effect; potency means the concentration at half of the fitted maximal effect; tags describe the fitted curve by direction and shape."}
{"test": "qHTS for Inhibitors of human tyrosyl-DNA phosphodiesterase 1 (TDP1): qHTS in cells in presence of CPT; further: nearly all actives have a fitted effect of over 55% in size", "conditions": "chicken DT40 Tdp1-/-;hTDP1 cells + 20 nM CPT, ATP luminescence, 48 h; activity change, negative = growth inhibition: at 46.2 µM (top of the series)", "how_it_was_run": "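Chicken DT40 Tdp1-/- cells complemented with human TDP1, 400 cells/well, exposed to compounds plus 20 nM camptothecin for at least 48 h at 37 C; viability read as ATP content by CellTiter-Glo luminescence.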"}
{"smiles": "CC(C)(C)NC(=O)Cn1nnc(-c2ccccc2NC(=O)c2ccco2)n1", "Potency": "inconclusive: 20.6 µM [inhibitor, single point]"}
{"smiles": "COc1ccc(C2c3c(n(C)c4ccccc34)C(=O)N2CC(=O)Nc2ccccc2F)cc1", "note": "(stereo not drawn)", "Potency": "active: 16.4 µM"}
{"smiles": "C=C1C(=O)[C@]23C[C@H]1CC[C@H]2[C@]1(C)[C@@H](OC(C)=O)CC[C@@](C)(C(=O)OC)[C@H]1C[C@@H]3OC(C)=O", "Potency": "active: 0.58 µM"}
{"smiles": "CCOC(=O)N1CCC(NC(=O)c2ccc3c(c2)N(C)CCS3)CC1", "Potency": "inconclusive: 18.4 µM [inhibitor, partial curve]"}
{"smiles": "O=C(Cc1ccc(NC(=O)N2CCSc3ncccc32)cc1)NCCc1ccccc1", "Potency": "inconclusive: 11.6 µM [inhibitor, partial curve, poor fit]"}
{"smiles": "O=C1NC(=Nc2ccccc2)SC1(CO)CO", "activity change, negative = growth inhibition": "inactive: -8.91%"}
{"smiles": "Cc1ccc(CCNC(=O)c2ccc(CSCc3ccccc3Cl)o2)cc1", "Potency": "inconclusive: 25.9 µM [inhibitor, single point]"}
{"smiles": "CCOc1ccc(NC(=O)Cn2c(=O)oc3cc(S(=O)(=O)N4CCCCCC4)ccc32)cc1", "Potency": "active: 20.6 µM"}
{"smiles": "COc1ccc(N2CCC(CNC(=S)Nc3ccc(C)cc3C)C2)cc1", "note": "(stereo not drawn)", "Potency": "inconclusive: 16.4 µM [inhibitor, single point]"}
{"smiles": "O=C(OCC(=O)N1CCc2ccccc21)c1ccc([N+](=O)[O-])cc1", "Potency": "active: 20.6 µM"}
{"smiles": "CCOC(=O)c1c(C)nsc1NCc1ccccc1", "Potency": "inconclusive: 11.6 µM [inhibitor, partial curve, poor fit]"}
{"smiles": "N#CC(C(=O)NCCc1ccccc1)c1nc2ccccc2nc1N1CCCCC1", "note": "(stereo not drawn)", "Potency": "active: 20.6 µM"}
{"smiles": "CC1(C)CC(NCCN2CCN(C3=CC(=C(C#N)C#N)CC(C)(C)C3)CC2)=CC(=C(C#N)C#N)C1", "Potency": "active: 18.4 µM"}
{"smiles": "COC(=O)[C@]1(Cc2ccccc2)N[C@H](CN(C)C(=O)Nc2ccc(Cl)cc2)[C@@H]2C(=O)N(Cc3ccccc3)C(=O)[C@@H]21", "Potency": "active: 20.6 µM"}
{"smiles": "C=CCn1c(C)c(C(C)=O)c(N2CCN(C(c3ccccc3)c3ccccc3)CC2)nc1=S", "Potency": "inconclusive: 29.1 µM [inhibitor, single point]"}
{"smiles": "Cc1cc(=O)oc2c(CN3CCCCC3)c(O)ccc12", "activity change, negative = growth inhibition": "inactive: -5.31%"}
{"smiles": "CCOc1ccc2nc(N=NC3=C(O)CC(C)(C)CC3=O)sc2c1", "Potency": "active: 3.66 µM"}
{"smiles": "CC1=CC(C)(C)N(C(=O)CSc2nncn2C)c2ccccc21", "activity change, negative = growth inhibition": "inactive: -6.16%"}
{"smiles": "CCc1ccc(CNC(=O)c2cc(-c3ccc(Cl)s3)nc3ccccc23)cc1", "Potency": "inconclusive: 14.6 µM [inhibitor, single point]"}
{"smiles": "C=CCNC(=O)C1CC(=O)N(c2ccc(OCC(=O)Nc3ccc(Cl)cc3)cc2)C1", "note": "(stereo not drawn)", "activity change, negative = growth inhibition": "inactive: -4.36%"}
{"smiles": "CC1CCN(S(=O)(=O)c2ccc(Oc3ccc([N+](=O)[O-])cc3)cc2)CC1", "Potency": "active: 16.4 µM"}
{"smiles": "COC(=O)[C@H](Cc1ccc(O)cc1)NC(=O)Cn1cnc2c(NCc3ccccc3)ncnc21", "activity change, negative = growth inhibition": "inactive: 1.01%"}
{"smiles": "COc1ccc(-c2ncncc2-c2ccc(OC)c(OC)c2)c(O)c1", "activity change, negative = growth inhibition": "inactive: -11.2%"}
{"smiles": "CC(=O)OCCNc1nc(-c2ccccc2)nc2ccccc12", "Potency": "inconclusive: 16.4 µM [inhibitor, single point]"}
{"smiles": "O=C1NC[C@H](Cc2ccccc2)N(C[C@H]2CCCN2C[C@H](Cc2ccccc2)N2C[C@H](Cc3ccccc3)N(CCc3ccccc3)C(=O)C2=O)C1=O", "Potency": "inconclusive: 18.4 µM [inhibitor, single point]"}
{"smiles": "CCOC(=O)c1sc(NC(=O)c2ccc(S(=O)(=O)N3CCOCC3)cc2)cc1C", "Potency": "inconclusive: 29.1 µM [inhibitor, single point]"}
{"smiles": "CCOC(=O)N1CCc2c(sc3c2c(=O)n(-c2ccc(CC)cc2)c(=O)n3CC(=O)Nc2ccc(C)cc2)C1", "Potency": "inconclusive: 23.1 µM [inhibitor, single point]"}
{"smiles": "CCOC(=O)c1cccc(NC(=O)CCCn2c(=O)c3cccn3c3cccnc32)c1", "Potency": "inconclusive: 23.1 µM [inhibitor, single point]"}
{"smiles": "CCCN1Cc2cccc(C(=O)Nc3ccc(-c4nc5ccccc5[nH]4)cc3)c2C1=O", "Potency": "inconclusive: 10.3 µM [inhibitor, partial curve]"}
{"smiles": "O=C(O)CNC(=O)CC1S/C(=N/N=C2/NC(=O)CS2)NC1=O", "note": "(stereo not drawn)", "activity change, negative = growth inhibition": "inactive: 6.24%"}
{"smiles": "COc1ccc(/C=N/NC(=O)c2cccc(NC(=O)c3ccccc3)c2)c(C(=O)O)c1OC", "activity change, negative = growth inhibition": "inactive: -18.2%"}
{"smiles": "CCOc1ccc(CNC(=O)c2ccc3c(c2)c(C)c(C)n3Cc2ccc(Cl)cc2)cc1", "Potency": "inconclusive: 25.9 µM [inhibitor, single point]"}
{"smiles": "Cc1ccccc1NC(=O)c1c(NC(=O)Cc2ccccc2)sc2c1CCC2", "Potency": "inconclusive: 29.1 µM [inhibitor, single point]"}
{"smiles": "COc1ccc(Cl)c(Cn2c(NCc3ccco3)nc3c2c(=O)n(C)c(=O)n3C)c1", "Potency": "active: 4.61 µM"}
{"smiles": "COc1cccc(C(=O)O[C@H]2[C@H](Cc3ccccc3)NS(=O)(=O)[C@H]3C[C@@H]4C=C[C@]23O4)c1", "Potency": "inconclusive: 20 µM [inhibitor, single point] and inconclusive: 29.1 µM [inhibitor, single point]"}
{"smiles": "COc1ccc(CNC(=O)Cn2nc(-c3ccc4c(c3)OCCO4)ccc2=O)cc1", "Potency": "inconclusive: 29.1 µM [inhibitor, partial curve, poor fit]"}
{"smiles": "CCc1ccc(OCCCC(=O)Nc2ccc(S(=O)(=O)Nc3cc(C)nc(C)n3)cc2)cc1", "activity change, negative = growth inhibition": "inactive: -0.605%"}
{"smiles": "O=C(N/N=C/C(Cl)=C/c1ccccc1)c1cnccn1", "Potency": "active: 16.4 µM"}
{"smiles": "CC1(C)OC(=O)C2=C(C[C@@H](CCc3ccccc3)O[C@H]2C2CCCC2)O1", "Potency": "inconclusive: 16.4 µM [inhibitor, single point]"}
{"smiles": "C=CCN1C(=O)c2ccc(C(=O)Nc3ccccn3)cc2C1=O", "activity change, negative = growth inhibition": "inactive: -0.203%"}
{"smiles": "COc1cccc(-n2nnc3c(=O)n(Cc4cccc(F)c4)cnc32)c1", "Potency": "inconclusive: 1.03 µM [inhibitor, full curve]"}
{"smiles": "CC1(C)CC(=O)C2=C(C1)NCN(Cc1ccc3c(c1)OCO3)C2", "Potency": "inconclusive: 29.1 µM [inhibitor, single point]"}
{"smiles": "Cc1cc(C)c(NC(=O)c2cc(S(=O)(=O)N3CCN(c4ccccc4F)CC3)ccc2F)c(C)c1", "Potency": "inconclusive: 23.1 µM [inhibitor, single point]"}
{"smiles": "CCOc1ccccc1C(=O)Nc1ccsc1C(=O)OC", "Potency": "active: 4.11 µM"}
{"smiles": "O=C(NCc1ccccc1)c1c(Cl)nc(Cl)c(Cl)c1Cl", "Potency": "inconclusive: 20.6 µM [inhibitor, single point]"}
{"smiles": "CC(=O)NC(c1ccccc1)c1nc(-c2cccc(C(C)C)c2)cs1", "note": "(stereo not drawn)", "Potency": "inconclusive: 13 µM [inhibitor, partial curve]"}
{"smiles": "CC(C)CN(C(=O)CSc1nn(-c2ccc(Cl)cc2)c(=S)s1)C1CCS(=O)(=O)C1", "note": "(stereo not drawn)", "Potency": "inconclusive: 32.6 µM [inhibitor, single point]"}
{"smiles": "O=C(NC1CCS(=O)(=O)C1)c1cccc(Cl)c1", "note": "(stereo not drawn)", "activity change, negative = growth inhibition": "inactive: 2.85%"}
{"smiles": "Cc1ccc(C(=O)N/C(=C\\c2ccccc2)C(=O)NCc2cccnc2)cc1", "Potency": "inconclusive: 10.3 µM [inhibitor, partial curve]"}
{"smiles": "O=C(NCc1ccccn1)c1ccc(COc2ccc(Cl)cc2)o1", "activity change, negative = growth inhibition": "inconclusive: -33.8% [inhibitor]"}
{"smiles": "Cc1cc(OCC(=O)Nc2ccc3c(c2)OCCO3)cc(C)c1Cl", "Potency": "inconclusive: 29.1 µM [inhibitor, single point]"}
{"smiles": "CC1(Oc2cccc(C#N)c2)CCN(Cc2ccccc2OC(F)F)C1", "note": "(stereo not drawn)", "Potency": "inconclusive: 20.6 µM [inhibitor, single point]"}
{"smiles": "COc1cc(/C=C/C(=O)N2CCN(c3ccccn3)CC2)cc(OC)c1OC", "Potency": "inconclusive: 16.4 µM [inhibitor, single point]"}
{"smiles": "CC(=O)Oc1oc(-c2ccccc2)nc1C=Nc1ccc(N(C)C)cc1", "Potency": "inconclusive: 20.6 µM [inhibitor, single point]"}
{"smiles": "Cc1ccc2oc(=O)n(CCCOc3ccc(Cl)cc3)c2c1", "Potency": "inconclusive: 23.1 µM [inhibitor, single point]"}
{"smiles": "CSc1ccc(CN2CCC2(C)C(=O)NCc2cccs2)cc1", "note": "(stereo not drawn)", "Potency": "inconclusive: 23.1 µM [inhibitor, partial curve]"}
{"smiles": "CCCc1ccc(C(=O)NNc2cc(Cl)ccc2Cl)cc1", "Potency": "inconclusive: 29.1 µM [inhibitor, single point]"}
{"smiles": "O=S1(=O)N[C@@H](CC2=CCCCC2)C2CCCCC2O1", "note": "(stereo partly drawn)", "activity change, negative = growth inhibition": "inactive: -5.75%"}
{"smiles": "CCCCCCCC(=O)N/N=C(/C)c1c(O)cc(C)oc1=O", "Potency": "inconclusive: 29.1 µM [inhibitor, single point]"}
{"smiles": "Cc1cc(OCCOCCNCc2ccccc2)ccc1C(C)C", "Potency": "active: 18.4 µM"}
{"smiles": "N#Cc1c(NC(=O)COC(=O)c2ccc(S(=O)(=O)N3CCCC3)cc2)sc2c1CCCCC2", "activity change, negative = growth inhibition": "inactive: -13.2%"}
{"smiles": "C(=C\\c1ccccc1)/CSc1nnc(-c2ccccc2)n1Cc1ccco1", "Potency": "active: 5.17 µM"}
{"smiles": "CC(=O)Nc1ccc(S(=O)(=O)N2CCN=C2SCc2ccc(C)cc2)cc1", "Potency": "inconclusive: 25.9 µM [inhibitor, single point]"}
{"smiles": "Cc1cc(C)cc(NC(=S)NCCN(C2CCCCC2)C2CCCC2)c1", "Potency": "inconclusive: 16.4 µM [inhibitor, single point]"}
{"smiles": "CCCCN(CCCC)C(=O)c1sc2nc(N3CCOCC3)c3c(c2c1N)CCCC3", "Potency": "inconclusive: 29.1 µM [inhibitor, single point]"}
{"smiles": "CCOc1ccc(N(C)S(=O)(=O)c2cc(-c3cc(C)no3)ccc2CC)cc1", "Potency": "inconclusive: 29.1 µM [inhibitor, single point]"}
{"smiles": "COC1=CC(=O)c2nc(Cl)ccc2C1=O", "Potency": "active: 0.58 µM"}
{"smiles": "Cc1cccc(N2C(=O)c3cccc4c(N)ccc(c34)C2=O)c1", "Potency": "inconclusive: 16.4 µM [inhibitor, single point]"}
